From the supplement of paper PMC5499739
The full ranking holds about 16,000 sequences; the median of “Z-score” is about -0.37, and the highest 2% start at about 3.2. This is one part of the list.

Each sequence was assayed on RBM10 RRM1-ZnF (GST-tagged construct) (assay: RNAcompete 7-mer binding Z-score; higher = stronger binding preference).
Procedure: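 RNAcompete: 20 pmol GST-tagged RBM10 RNA-binding constructs were incubated with a designed RNA pool of about 241,000 sequences up to 41 nt (1.5 nmol) on glutathione beads for 30 min at 4 °C and washed. Bound RNAs were identified by microarray hybridisation. Each RNA 7-mer is scored by a one-sided Z-score of its enrichment, computed over probes that contain the 7-mer within longer pool sequences.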

Sequence	RNAcompete 7-mer binding Z-score
GUGGCUU	-0.0707
GGUCUGA	-0.113
UCCAUCU	-0.867
CAUCACU	-0.766
UGGGGUC	2.57
AAUCGAU	-0.353
CGUGGGU	2.81
CUUUGGU	-0.298
UGCACGG	0.586
UUUUCCG	-0.759
CAAUGAA	-0.496
UGGAUGC	1.17
GCCGUUC	-0.798
GCUUAAU	-0.642
UUUGACA	-0.571
AGACGCU	-0.932
CUGAAGC	-0.529
UCGCUAC	-0.665
AAAGCAU	-0.415
GUCCGCU	-0.694
CUCGAGU	-0.539
CCAACAG	-0.314
ACAGGUU	1.42
CCCGAAU	-0.646

Sequence	RNAcompete 7-mer binding Z-score
UUUGGAA	0.631
CACUUGG	-0.194
GGCCGAC	0.0658
AACGAGU	0.0268
CGACGAU	-0.425
AAUGGUC	0.368
AGACCAC	-0.909
AACACCC	-0.47
CCGGGAA	0.761
CGGAGUG	1.58
CCGACCG	-0.444
GAGGCCU	-0.386
UUAACGG	0.157
UGCCCAU	-0.685
ACCCGGC	-0.516
AAGCCCU	-0.831
GCUAGCU	-0.402
UAGACAA	-0.204
CACAUUG	-0.522
GUGACUA	0.218
CGUAAAU	-0.519
UCCUGUA	-0.798
GCUUGCC	-0.597
GCGAAUG	0.634

Sequence	RNAcompete 7-mer binding Z-score
AUAACCU	-0.805
UAAAAAA	-0.464
GACCAGC	-0.578
UUGCGCA	-0.568
CACUCCG	-0.597
AGGGCUG	1.68
AAGGAAU	2.28
AAAAACC	-0.776
GUAAUAA	-0.0642
CCUCCGC	-0.519
GAUCACG	-0.155
UUGUGAC	-0.324
AGCCCAC	-0.529
AUUUUCA	-0.922
UCGCUAG	-0.526
UCGACUA	-0.639
UUCGUCG	-0.545
AUCCCGA	-0.906
ACUCGAG	-0.246
UGAUGGA	1.94
CCACGUA	-0.578
ACCCGAU	-0.792
UAUCUUG	-0.642
GUCCAAU	-0.571

Sequence	RNAcompete 7-mer binding Z-score
GGCGCUG	0.41
GUGUAGU	0.894
UAUCGGG	0.875
ACAACCC	-0.526
GAGGCGA	1.12
GUUGAUC	-0.0934
ACCCCUC	-0.587
AAUGUUC	-0.636
CCUUCUG	-0.769
UGCGGAC	0.384
UACUCAA	-0.672
UAUAACC	-0.727
AUAGGUG	2.64
GACCCUC	-0.759
CUGGUUU	-0.0252
UCCAAUG	-0.513
AACCCGG	-0.431
CCAUUCG	-0.802
UCGAGGA	0.904
CAUACGG	0.287
CGUGACG	-0.149
CGGGAGG	3.02
UGAGCAG	0.644
UUUGCUA	-0.675

Sequence	RNAcompete 7-mer binding Z-score
GCCAGAA	-0.629
CCUAUCC	-0.922
GAAAAUC	-0.269
UGCCUCC	-0.506
GGCUAGU	0.102
CCACUUG	-0.724
UAAUGAG	0.186
ACCCCGC	-0.412
GGCGUGU	0.693
ACGGUUU	0.339
CACCUUG	-0.516
UCAGAGG	0.498
AACGUGU	-0.0285
AAUAGUU	-0.373
CCCCAAC	-0.376
UUUACGU	-0.681
GCCGAAA	-0.464
CAUCAUC	-0.714
CCAGCGA	-0.132
CCUUUUC	-1.01
GGCGACG	0.988
GUACGGA	1.42
GUCCCCU	-0.318
UACGCAC	-0.548

Sequence	RNAcompete 7-mer binding Z-score
AAAACAU	-0.428
GGAGAGG	3.41
GAUUUAC	-0.467
GCACCAU	-0.701
GUCACUG	-0.155
CCACUAU	-0.639
UGCACCG	-0.311
AUUUUGG	0.296
CAUCUGG	-0.418
CCUCCGG	-0.194
AUAGUUU	-0.503
AAUUGCG	-0.0317
GGCGAGA	1.35
CUCCAGA	-0.623
AUUUAUC	-0.691
GAGUUUG	0.553
ACGAGCG	0.946
GCUCUUG	-0.539
GACGCUA	-0.607
GUCCAAG	-0.175
GCUUUAG	-0.535
GGAUCUC	-0.246
UUGCCGU	-0.659
AAACCCC	-0.597

Sequence	RNAcompete 7-mer binding Z-score
AGAGGUA	1.69
UAGACAG	0.345
ACACAUG	-0.116
GAUGGCG	1.53
AGAAAUU	-0.366
UCCUCCU	-0.782
UGAUCGU	-0.483
GGCUGCA	0.426
CGGUCGU	-0.149
GAAAACU	-0.236
CCGCGAG	-0.506
AAGUAUA	-0.142
GCGACCU	-0.522
ACCCGCU	-0.685
UGCAUGG	1.31
GGAACCU	-0.149
UCAUGAG	-0.288
GGACGUC	0.166
CCUGAAG	-0.386
CCUCAUG	-0.694
ACUUUCC	-0.964
UCGGAAC	-0.145
CCUCUUG	-0.642
UAUCUCG	-0.756

Sequence	RNAcompete 7-mer binding Z-score
UAGAGCA	0.241
CCAAUCA	-0.681
CGUCUGC	-0.759
AUCCCUC	-0.75
CUUGACC	-0.941
AAUUCGG	-0.132
CAUAUGC	-0.529
UAUUACU	-0.545
GGCCAGU	-0.149
CCCAGCA	-0.574
ACCGACA	-0.779
CCUCAAG	-0.548
CAGUAGA	0.231
AGCGUCU	-0.672
ACACGCA	-0.568
UUCUUGG	-0.236
UCACAGC	-0.49
AAGUUAC	-0.275
GGAAAAA	1.86
GCACAUG	0.0885
UGGCUGG	1.37
AGCUCUC	-0.552
AACUACC	-0.753
CGCACAC	-0.366

Sequence	RNAcompete 7-mer binding Z-score
UUAUGUC	-0.678
CUGGAGC	0.41
CCAUAUU	-0.863
UCCGAAA	-0.678
CAAUCAA	-0.652
GAGAGCC	-0.353
UAUAGCA	-0.132
CAUGAUC	-0.396
AAGCCCG	-0.681
GCAAUAC	-0.311
GGUAUUG	1.51
CCACUCG	-0.545
UUGUAUC	-0.636
UCCAUAC	-0.792
GACGCUG	-0.396
UGAGCCU	-0.717
UAGUUAA	-0.373
GAAGAGA	1
UUCCCGA	-0.828
ACAUGAG	0.251
GGAUGUG	3.43
UGCCUGC	-0.503
UUCCCUG	-0.662
AGCCUGC	-0.662

Sequence	RNAcompete 7-mer binding Z-score
CUCCCUC	-0.431
CUCACAA	-0.763
UUCACUA	-0.675
GUACGAG	0.582
UUUAUUG	-0.568
UGAUUAA	-0.158
AAGCCAA	-0.405
AUGGUAU	1.14
GAAACAG	0.865
UAUCGAG	0.0593
AACCCGU	-0.87
GUUGGAA	1.84
CUGCUUA	-0.72
GAACCCA	-0.646
GAUUCGU	-0.402
CGACGCU	-0.642
GAAUCUC	-0.662
CCAUUCU	-0.899
